The values below come from paper PMC4336329 (PLoS ONE, 2015).

Each structure is given as a SMILES string. Out of some 310,000 compounds screened, about 2,200 (0.71%) showed an effect of 50% or more. The effect is printed as a negative number. Some of the results follow.

Chain of human ether-à-go-go-related gene (hERG) potassium channel (Q12809 whole entry, looked up): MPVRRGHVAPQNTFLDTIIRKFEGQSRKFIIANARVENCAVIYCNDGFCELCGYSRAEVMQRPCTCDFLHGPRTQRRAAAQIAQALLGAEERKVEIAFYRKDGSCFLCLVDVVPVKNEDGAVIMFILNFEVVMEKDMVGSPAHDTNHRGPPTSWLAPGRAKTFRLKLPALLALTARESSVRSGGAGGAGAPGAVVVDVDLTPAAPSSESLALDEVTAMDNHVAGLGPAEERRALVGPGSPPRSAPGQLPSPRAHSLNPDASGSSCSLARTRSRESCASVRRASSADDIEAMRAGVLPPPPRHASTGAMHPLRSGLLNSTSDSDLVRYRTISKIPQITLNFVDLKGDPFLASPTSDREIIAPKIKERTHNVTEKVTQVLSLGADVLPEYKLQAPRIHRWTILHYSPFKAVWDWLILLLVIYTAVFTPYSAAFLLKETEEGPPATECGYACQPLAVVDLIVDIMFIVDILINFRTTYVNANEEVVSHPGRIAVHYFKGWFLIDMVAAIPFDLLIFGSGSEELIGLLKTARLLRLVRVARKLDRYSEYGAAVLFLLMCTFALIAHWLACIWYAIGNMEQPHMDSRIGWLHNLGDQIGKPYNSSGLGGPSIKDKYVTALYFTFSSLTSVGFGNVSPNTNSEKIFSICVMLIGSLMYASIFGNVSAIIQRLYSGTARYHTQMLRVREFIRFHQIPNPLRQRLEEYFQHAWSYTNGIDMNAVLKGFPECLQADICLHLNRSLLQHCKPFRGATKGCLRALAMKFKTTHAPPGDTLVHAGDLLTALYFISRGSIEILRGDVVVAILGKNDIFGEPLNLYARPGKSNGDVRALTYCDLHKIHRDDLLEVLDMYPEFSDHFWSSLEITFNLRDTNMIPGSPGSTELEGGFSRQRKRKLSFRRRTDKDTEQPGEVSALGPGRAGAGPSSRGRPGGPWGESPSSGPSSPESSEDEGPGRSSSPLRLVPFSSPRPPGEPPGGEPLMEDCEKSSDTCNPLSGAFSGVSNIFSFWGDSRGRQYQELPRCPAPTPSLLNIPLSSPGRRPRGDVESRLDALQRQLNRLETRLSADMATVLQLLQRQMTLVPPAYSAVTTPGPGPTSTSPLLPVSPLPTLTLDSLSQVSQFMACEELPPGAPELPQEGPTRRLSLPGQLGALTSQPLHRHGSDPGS

The experiment has as its target human ether-à-go-go-related gene (hERG) potassium channel (human, UniProt Q12809). The experiment can be described thus: primary screen, population patch clamp on CHO cells stably expressing hERG.
Consider `COc1ccc(N2C(=S)N=C(Nc3ccccc3)C23CCCCC3)cc1`, for which the “hERG current change (%, negative = inhibition) at 1uM” value is 13.1%. To `COc1ccccc1C(=O)n1nc(-c2ccco2)nc1N` belongs 11.9%; to `O=[N+]([O-])c1cc2c(cc1/C=N/Nc1nc(Nc3ccccc3)nc(N3CCCCC3)n1)OCO2`, 4.28%.

Take `O=C(OCC(=O)N1CCc2ccccc2C1)c1cccs1`: the “hERG current change (%, negative = inhibition) at 1uM” value is 11.7%. Under `COc1cc2c(cc1OC)CN(S(C)(=O)=O)CC2` stands 16.5%; under `COCC(=O)Nc1cccc(C(F)(F)F)c1`, 9.32%. In the case of `COc1ccc(OC)c(S(=O)(=O)NCc2nc3nc(C)cc(C)n3n2)c1`, the “hERG current change (%, negative = inhibition) at 1uM” value was 11.8%. To `COc1cc(OC)cc(C(=O)NNC(=O)c2cc(S(=O)(=O)N3CCOCC3)ccc2F)c1` belongs 1.59%; to `COc1ccc(N(Cc2cc(=O)[nH]c3ccccc23)C(C)=O)cc1`, 14%; to `COc1ccc(Cn2nnnc2C(c2ccc(N(C)C)cc2)N2CCC(C(N)=O)CC2)cc1` (centres unmarked), 0.46%. To `CC1=C(C(=O)Nc2ccccc2Cl)C(c2ccc(N(C)C)cc2)NC(=O)N1` (centres unmarked) belongs 4%; to `Cc1ccc(/C=N/n2c(C3CCCCC3)n[nH]c2=S)cc1`, 17.4%.

Consider `CNC(=O)c1[nH]cnc1C(=O)Nc1ccccc1OC`, for which the “hERG current change (%, negative = inhibition) at 1uM” value is given as 6.48%. To `CCCCNS(=O)(=O)c1ccc2nc(SCC(=O)c3ccc(C#N)cc3)[nH]c2c1` belongs 7.66%; to `CCCN[C@H]1CCc2nc(N)sc2C1.Cl`, 13.9%. Under `CCCOc1ccc(C(=O)OCC(=O)NCCc2ccc(OCC)c(OCC)c2)cc1OC` stands 11.9%; under `CC1=Nc2cccc3cccc(c23)N1C`, 6.23%; under `CCCCC1=CC2=CC(=O)C(C)(OC(=O)CC)C(=O)C2=CN1Cc1ccco1` (centres unmarked), -0.305%. To `CCc1ccc(NC(=O)C2C3/C=C\CCCCC32)cc1` (centres unmarked) belongs 25.5%. On to `Nc1c(/C=C2/C=CC(=O)C(O)=C2)c(=O)nc2sc(CC(=O)N3CCCC3)nn12`, for which the “hERG current change (%, negative = inhibition) at 1uM” value amounted to 13.3%.

Take `CCc1nc(C)ccc1OCC(=O)N1CCc2c([nH]c3ccccc23)C1c1ccccn1` (centres unmarked): the “hERG current change (%, negative = inhibition) at 1uM” value came to 3.6%.

Take `COCCN(C(=O)COC(=O)/C=C/c1ccc2ccccc2n1)c1c(N)n(Cc2ccccc2)c(=O)[nH]c1=O`: the “hERG current change (%, negative = inhibition) at 1uM” value stood at 11.1%. Under `COc1ccc2oc(C(=O)OCC(=O)Nc3ccc(OC)c(S(N)(=O)=O)c3)c(C)c2c1` stands 7.56%. Under `CN1CCc2nc(SC(C(=O)O)c3ccccc3)c(C#N)c(-c3cccs3)c2C1` (centres unmarked) stands 18.1%; under `CCCCN(C(=O)C1CSC2(C)CCC(=O)N12)c1c(N)n(CC(C)C)c(=O)[nH]c1=O` (centres unmarked), 13.4%; under `CN(C)CCCC(C)(O)C(C)(C)c1ccccc1.Cl` (centres unmarked), 5.53%.

Turning to `O=c1cc(CSc2ccc(Cl)cc2)nc(N2CCCCC2)[nH]1`, the “hERG current change (%, negative = inhibition) at 1uM” value is given as 11.5%. To `CCCCC1=CC2=CC(=O)C(C)(OC(=O)CC)C(=O)C2=CN1CCc1c[nH]c2ccccc12` (centres unmarked) belongs 6.29%. To `COCC1CCCCN1C(=O)c1cccc(OC2CCN(C(=O)C3CC3)CC2)c1` (centres unmarked) belongs 0.726%. Under `CCOC(=O)C1=C(SCC(=O)Nc2ccccc2)NC(=O)C(C#N)C12CCCCC2` (centres unmarked) stands 4.71%; under `CCOC(=O)[C@@H]1[C@H]2COc3ccccc3[C@@H]2N2C(=O)N(c3ccc(C)cc3)C(=O)[C@]12C`, 6.27%. On to `CCCCC1=CC2=CC(=O)C(C)(OC(=O)CC)C(=O)C2=CN1CC(C)C` (centres unmarked), for which the “hERG current change (%, negative = inhibition) at 1uM” value came out at 7.45%. As to `COc1ccc(/C=C/C(=O)c2ccccc2)cc1Cn1nnc2ccccc21`, the “hERG current change (%, negative = inhibition) at 1uM” value amounted to 4.42%. Under `Br.CCOC(=O)C(CC)(CCC(=O)OC)c1csc(Nc2ccccc2O)n1` (centres unmarked) stands 12.6%; under `O=[N+]([O-])c1cc(S(=O)(=O)Nc2ccccc2)ccc1N1CCN(c2ccccc2)CC1`, 5.34%; under `O=C(c1ccc(Cl)cc1)N(Cc1cccs1)C1CCS(=O)(=O)C1` (centres unmarked), -3.91%. To `COC(=O)C(NC(=O)C(C)NC(=O)OCc1ccccc1)C(C)C` (centres unmarked) belongs 15.3%; to `C=CCn1c(SCc2ccc(C(=O)OC)cc2)nnc1-c1sc(N)nc1C`, -5.74%; to `CCOC(=O)c1c(C)[nH]c(C(=O)N/N=C\c2ccccc2O)c1C`, 4.25%. To `CCn1cc(CNC(=O)c2ccc3nc(Cc4ccccc4F)oc3c2)cn1` belongs 11.3%; to `O=C(NCC1CCCO1)C(=Cc1cccc([N+](=O)[O-])c1)C(=O)NCC1CCCO1` (centres unmarked), 6.59%. For the compound `Cc1nn(-c2ccccc2)c(N2CCCC2)c1/C=N/NC(=O)C1CC1`, the “hERG current change (%, negative = inhibition) at 1uM” value stood at 6.34%.

As to `O=C(NCc1ccc(F)cc1)c1c(O)c2cccc3c2n(c1=O)CCC3`, the “hERG current change (%, negative = inhibition) at 1uM” value was found to be 4.88%. Consider `O=P(O)(O)O.Oc1ccc(Br)cc1/C=N/N1CCCCC1`, for which the “hERG current change (%, negative = inhibition) at 1uM” value is -3.79%. To `Cn1nc(C(=O)Nc2cccc(S(=O)(=O)N3CCCC3)c2)c2ccccc2c1=O` belongs 8.34%.

As for `CC(=O)c1ccc(NC(=O)C2(c3ccccc3)CC2(Cl)Cl)cc1` (centres unmarked), the “hERG current change (%, negative = inhibition) at 1uM” value amounted to 5.11%.

As for `COc1ccccc1CC(=O)NNS(=O)(=O)c1ccccc1[N+](=O)[O-]`, the “hERG current change (%, negative = inhibition) at 1uM” value is 10.9%. Under `COc1cc(-c2nn3c(-c4cccc(C)c4)nnc3s2)cc(OC)c1OC` stands 11.7%; under `CNC(=O)COC(=O)CCC(=O)c1cccs1`, -2.28%. To `Cc1ccc(Cl)cc1N1CCN(S(=O)(=O)c2c(C)noc2C)CC1` belongs 7.27%; to `Cc1ccc(C)c(Cn2nnc3c(=O)[nH]c(C(=O)NCC4CCCO4)nc32)c1` (centres unmarked), -10.4%; to `O=C(COC(=O)c1cc[n+]([O-])cc1)Nc1ccc([N+](=O)[O-])cc1Cl`, 5.02%.

For the compound `CN(C)C(=O)COC(=O)/C=C/c1cn(-c2ccccc2)nc1-c1cccs1`, the “hERG current change (%, negative = inhibition) at 1uM” value was found to be 4.82%. To `CC(C)(C)C1COc2ccccc2N1C(=O)c1cccc(Cl)c1` (centres unmarked) belongs 12.3%. Under `CCCOCC(O)CC(CC)C(=O)NNC(=S)Nc1ccccc1` (centres unmarked) stands 11.3%; under `CC(=O)c1sc(NC(=O)C2CCCN2S(=O)(=O)c2ccccc2F)nc1C` (centres unmarked), 13.9%. Under `Cn1nc(C(F)(F)F)c(-c2cccc(C(F)(F)F)c2)c1NC(=O)CSCC(=O)O` stands 13%; under `COc1ccc(OCC(=O)N/N=C/c2ccc(N(C)C)cc2)cc1`, 11.6%. As for `Cc1cc(C)c2nc(NNC(=O)c3cc(=O)c4ccccc4o3)sc2c1`, the “hERG current change (%, negative = inhibition) at 1uM” value is recorded as 11.2%.

For `Cc1cccc(OCCCC(=O)Nc2ccc(S(=O)(=O)Nc3nccs3)cc2)c1C`, the “hERG current change (%, negative = inhibition) at 1uM” value was 5.13%. Under `COc1nc(NC2CCCCC2)nc(NC(C)(C)C)n1` stands 4.9%; under `c1cc(-c2sc(-c3ccncc3)c(-c3ccncc3)c2-c2ccncc2)ccn1`, -12.7%. Under `CCOC(=O)C1CCCN(C(=O)c2cn(CC)c(=O)c3cc(OC)c(OC)cc23)C1` (centres unmarked) stands 19.9%; under `CS(=O)(=O)N1CCc2cc(C(=O)Nc3ccccc3)ccc21`, 0.329%; under `Cc1cccc(Cl)c1OCCCCn1ccnc1`, -5.39%. Regarding `O=C(NCCCn1ccnc1)c1cc(S(=O)(=O)N2CCOCC2)ccc1F`, the “hERG current change (%, negative = inhibition) at 1uM” value is recorded as 13.4%. To `CCc1nnc(NC(=O)CC(C)c2ccccc2)s1` (centres unmarked) belongs 13.6%; to `CC(C)(C)[C@H]1CCC(=O)N([C@H](CSc2ccccc2)Cc2ccccc2)CC1`, 4.35%; to `CCOCCCNC(=O)c1ccc(NC(=O)C2CCCO2)cc1` (centres unmarked), 6.45%. To `Cc1[nH]c2ccc(C(=O)N3CCCC3)cc2c1C` belongs 6.09%. To `O=c1[nH]c(Cc2ccccc2)nc2ccccc12` belongs 5.95%. Turning to `C=CCOC(=O)COc1ccc2c(C)c(C)c(=O)oc2c1`, the “hERG current change (%, negative = inhibition) at 1uM” value was found to be 5.01%. With `CCOC(=O)N1CCN(c2c(NCc3cccs3)c(=O)c2=O)CC1`, the “hERG current change (%, negative = inhibition) at 1uM” value is 15.5%. Turning to `N/C(=N\O)c1ccccc1N1CCCCC1`, the “hERG current change (%, negative = inhibition) at 1uM” value was -2.58%. To `Cn1c(SCC(=O)C(C)(C)C)nnc1-c1ccc(F)cc1` belongs 10.4%; to `O=C(CCCN1C(=O)/C(=C\c2ccco2)SC1=S)Nc1ccc(O)cc1C(=O)O`, 16.7%; to `C=CCN1C=C2C(=O)C(C)(OC(=O)c3cccs3)C(=O)C=C2C=C1CCCC(=O)OC` (centres unmarked), 14%.

For `COc1ccccc1S(=O)(=O)Cc1ccc(C(=O)NCc2ccc(C)cc2)o1`, the “hERG current change (%, negative = inhibition) at 1uM” value was found to be 1.61%. Under `Cn1c(=O)c2c(nc(SCCN3CCOCC3)n2Cc2cccc3ccccc23)n(C)c1=O` stands 1.03%; under `Cn1nc(CC(=O)NC2CCCCCCCCCCC2)c2ccccc2c1=O`, 6.92%; under `CC(=O)OC1=CC[C@H]2[C@@H]3CC[C@H]4C[C@H](OC(C)=O)[C@@H](OC(C)=O)C[C@]4(C)[C@H]3CC[C@]12C`, 10.7%. `Cl.O=C(NC12CC3CC(CC(C3)C1)C2)OC1CN2CCC1CC2` (centres unmarked): the “hERG current change (%, negative = inhibition) at 1uM” value worked out at 5.59%. Under `COC(=O)C(Cc1ccccc1)NC(=O)c1cc(=O)[nH]c2ccccc12` (centres unmarked) stands 5.59%; under `CC(C)Oc1ccc(C(=O)NCC(=O)OCC(=O)N(C)Cc2cccs2)cc1`, -0.219%. Under `CC[C@@]12C(=O)N(c3ccc(OC)cc3)C(=O)N1[C@H](c1ccc(Cl)cc1)[C@@H]1C(=O)N(C3CCCCC3)C(=O)[C@@H]12` stands 4.01%; under `O=C(NC1CCCN(c2ccc(C(F)(F)F)cn2)C1)c1ccncc1` (centres unmarked), -51.8%.
